Experimental data taken from patent US10918643B2, “No-donors for the treatment of cerebrovascular vasospasms after brain hemorrhage” (Westfaelische Wilhelms-Universitaet Muenster, priority 2015, dated 2021).

Tested on: cerebral vasospasm of the middle cerebral artery (MCA) after aneurismal SAH
Assay: Transcranial Doppler (TCD) mean blood flow velocity in the MCAs, rescue treatment of one SAH patient
Conditions: 2nd day after SAH; increase from 130 cm/sec under anti-vasospastic therapy with Nimodipine (6x60 mg or 1-2 mg/hr i.v.)

**Q.** Which “mean blood flow velocity in the right MCA” value does the source give for `COCCOC(=O)C1=C(C)NC(C)=C(C(=O)OC(C)C)C1c1cccc([N+](=O)[O-])c1` (stereo not shown) [Nimodipine] here?
**A.** The value was 160 to 190 cm/s.
